The full ranking holds about 33,000 sequences; the median of “E-score (-0.5 to 0.5)” is about -0.035, and the highest 2% start at about 0.35. The list shows a part of the results.

For the assay, the target named is T1, Pdr3 (UniProt P33200).
T1 sequence: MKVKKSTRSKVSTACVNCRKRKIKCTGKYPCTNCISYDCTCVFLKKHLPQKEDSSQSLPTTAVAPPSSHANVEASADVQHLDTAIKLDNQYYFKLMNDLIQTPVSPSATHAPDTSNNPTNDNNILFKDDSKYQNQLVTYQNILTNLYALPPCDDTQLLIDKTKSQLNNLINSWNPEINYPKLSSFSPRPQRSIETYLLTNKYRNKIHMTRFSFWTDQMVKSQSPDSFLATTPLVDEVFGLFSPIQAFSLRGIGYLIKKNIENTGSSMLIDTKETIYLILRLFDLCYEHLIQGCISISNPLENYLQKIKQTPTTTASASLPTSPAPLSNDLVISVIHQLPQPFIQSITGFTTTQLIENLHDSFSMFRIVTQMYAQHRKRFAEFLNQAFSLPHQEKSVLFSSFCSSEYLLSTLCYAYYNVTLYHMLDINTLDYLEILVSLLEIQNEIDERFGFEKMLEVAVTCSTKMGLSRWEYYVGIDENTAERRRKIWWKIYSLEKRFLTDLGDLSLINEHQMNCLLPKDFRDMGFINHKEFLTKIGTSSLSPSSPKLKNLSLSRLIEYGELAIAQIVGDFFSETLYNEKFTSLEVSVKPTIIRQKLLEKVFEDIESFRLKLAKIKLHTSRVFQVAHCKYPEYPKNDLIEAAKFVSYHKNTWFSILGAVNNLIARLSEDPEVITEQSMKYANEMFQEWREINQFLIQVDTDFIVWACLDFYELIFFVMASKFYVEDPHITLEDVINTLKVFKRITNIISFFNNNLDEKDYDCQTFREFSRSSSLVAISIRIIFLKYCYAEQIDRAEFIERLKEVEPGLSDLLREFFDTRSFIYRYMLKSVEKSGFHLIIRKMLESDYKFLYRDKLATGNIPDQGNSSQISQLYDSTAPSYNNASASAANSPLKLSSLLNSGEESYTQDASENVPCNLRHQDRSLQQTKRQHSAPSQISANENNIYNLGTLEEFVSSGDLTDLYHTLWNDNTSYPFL
Put plainly: PBM E-score (8-mer binding enrichment) (E-score (-0.5 to 0.5)); higher = stronger / more preferred TF binding; most listed sequences are background and not binding sites. As to conditions: protein concentration: 200 nM; construct: GST-full length. The gist of the method: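 For each ungapped eight-base word taken together with its reverse complement, the Universal PBM Analysis Suite assigned an E-score. Binding data came from GST-tagged yeast transcription factors, applied at about 100-200 nM, on universal all-10-mer Agilent arrays made double-stranded by primer extension. Fluorescent anti-GST marked bound protein, and scans were normalised with masliner.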
Regarding ATGTATGA, the “PBM E-score” value is 0.00853. Turning to ACGCGAAG, the “PBM E-score” value is 0.0438. Take AAACACGG: the “PBM E-score” value turned out to be 0.117. Under AGAGGGGG stands -0.313; under ACATGGCA, -0.0115; under ACATTGTG, -0.152.

Take CAACCCGA: the “PBM E-score” value stood at 0.212.

Regarding AAACTACC, the “PBM E-score” value was -0.00608. On to ATTAATTA, for which the “PBM E-score” value was 0.00925. The same measure for AGGAGTGA: -0.0515.

For ACGTGGCC, the “PBM E-score” value is -0.246.

As to CGTTTCGA, the “PBM E-score” value was -0.259.

As to AAGATGCT, the “PBM E-score” value is -0.108. GCGACAGC: the “PBM E-score” value is -0.0709.

Regarding AAGAATGA, the “PBM E-score” value is -0.136. CCCGTCCG: the “PBM E-score” value is 0.241. Turning to CCAATCCA, the “PBM E-score” value was -0.0182. Under ACTCCAGC stands -0.113; under ACCACTAG, -0.133. Take ACCGTCAT: the “PBM E-score” value was -0.0103. CGGCCCAG: the “PBM E-score” value is 0.0316. The same measure for CCTCGACG: 0.0752; for CAGGGGTA: -0.117; for CGCTAGCG: -0.13. Regarding AACCTTGT, the “PBM E-score” value is -0.222. Consider TCTTCCCA, for which the “PBM E-score” value is -0.0869.

In the case of CAAGCACG, the “PBM E-score” value was -0.1.

With AACCCCAT, the “PBM E-score” value was 0.0711.

As to GACTCCCC, the “PBM E-score” value is -0.0585.

In the case of GCGGCGTA, the “PBM E-score” value amounted to 0.156. Under AACCCCAC stands 0.0512. As for GCCTCAGA, the “PBM E-score” value was -0.0687. Consider CAACCCCG, for which the “PBM E-score” value worked out at 0.209. Regarding CGAACTCC, the “PBM E-score” value came out at 0.132. The same measure for AACCCAGC: -0.118; for GCCTATAA: -0.213; for GCGGACAC: 0.21. Under TACCGATA stands 0.0617.

For AGGGTTGG, the “PBM E-score” value is -0.0309. CAATTTTA: the “PBM E-score” value is 0.0153. In the case of AATTGTCT, the “PBM E-score” value was found to be 0.0126. For ATGCAACA, the “PBM E-score” value is -0.286. Under CACAGTCG stands -0.211; under AACCAGGG, -0.055; under TATATCCA, 0.0177. Consider GTAGGAAA, for which the “PBM E-score” value was -0.178. For the sequence GCTCCGTA, the “PBM E-score” value was found to be 0.32. The same measure for ATATATAC: 0.19. As to AGCTCCCG, the “PBM E-score” value is 0.0843.

Turning to CATTCAAA, the “PBM E-score” value was determined as 0.19. Regarding AAAGCTGG, the “PBM E-score” value is -0.0169. As for GTGTCAAC, the “PBM E-score” value is -0.0447. As to AGAATTTG, the “PBM E-score” value was -0.158.

On to AAATCCGC, for which the “PBM E-score” value is 0.196. Take CGGCACAA: the “PBM E-score” value was 0.121.

Take ACAATTCG: the “PBM E-score” value is 0.0843. On to AGATGTTC, for which the “PBM E-score” value is -0.143. For the sequence GACCCACA, the “PBM E-score” value amounted to 0.0886. The same measure for ATACGAAA: 0.182; for CCGCCCGA: 0.269. As to AGACCCTA, the “PBM E-score” value is -0.168. As to CAAGCCAC, the “PBM E-score” value was -0.313.

For AAGTCTTC, the “PBM E-score” value is -0.257. Regarding AAATACGC, the “PBM E-score” value is 0.156. With ATTCAGCG, the “PBM E-score” value was -0.011. For CGCTGCAC, the “PBM E-score” value stood at 0.121.

With GCCGTAAC, the “PBM E-score” value is -0.0415. Consider CTGTTAAA, for which the “PBM E-score” value is -0.227. The same measure for AAATCGAG: 0.104; for ACCAGGGG: -0.0427; for ACTAATAC: 0.104.

As to CGGCCTTC, the “PBM E-score” value came to 0.268. Under CCATGTAC stands -0.237. For the sequence GGTTTGTA, the “PBM E-score” value is -0.0635. For GTGCGTAA, the “PBM E-score” value was -0.123. Regarding ACAAGAGC, the “PBM E-score” value is -0.0111. As for CAGACAGC, the “PBM E-score” value was -0.078. Consider ATGTATTG, for which the “PBM E-score” value was determined as 0.116. Consider AATTCCTG, for which the “PBM E-score” value was -0.021.

Take CTTCGCAC: the “PBM E-score” value was -0.151.

As to TGGAACAA, the “PBM E-score” value was -0.0164. AATGCGCA: the “PBM E-score” value came out at 0.232.

As for AGTTACGG, the “PBM E-score” value came to 0.0704. Under GTCTCATA stands -0.1; under CATTTTTC, -0.00253. TCACCACA: the “PBM E-score” value is -0.0208. In the case of ATTACAAA, the “PBM E-score” value was -0.0697. Take CAGGTATC: the “PBM E-score” value is -0.0844.

AACAATAC: the “PBM E-score” value was determined as 0.0524. For CAGTTACC, the “PBM E-score” value is -0.0312. For GATAAATC, the “PBM E-score” value is 0.196. Regarding ACGGGACT, the “PBM E-score” value came to 0.183. With ACCTAAGT, the “PBM E-score” value is -0.0261. On to AACTAACC, for which the “PBM E-score” value amounted to 0.156. In the case of ATTGTCAA, the “PBM E-score” value was -0.0556. As for CGAGAGCC, the “PBM E-score” value was -0.0597. Consider GAAATGGC, for which the “PBM E-score” value was -0.0959. As for AAAAGCGC, the “PBM E-score” value was -0.0799. The same measure for CGTAGGGC: -0.157; for AATTGACA: -0.141; for CAGCGGTA: 0.0263. For the sequence CATAGAAG, the “PBM E-score” value is -0.0582.

As to ACGCCGCA, the “PBM E-score” value stood at 0.181. TCCCTCCA: the “PBM E-score” value was -0.178.

Turning to AGCCTAGA, the “PBM E-score” value was -0.336. As to CAGCCGGA, the “PBM E-score” value came to 0.398.

For the sequence AATACTGC, the “PBM E-score” value came out at 0.0423. In the case of AGCTCGAA, the “PBM E-score” value was determined as 0.111.

For CAATGGCG, the “PBM E-score” value is 0.166. Consider TCGAGGCA, for which the “PBM E-score” value was -0.123.

These data come from the supplement of paper PMC3334620.
